Source: PubChem BioAssay AID1466 (National Center for Advancing Translational Sciences (NCATS), 2008)
In all, about 200,000 compounds went through this assay and about 10 (0.005%) were called active. The shares of active, inactive and inconclusive entries below differ from those in the screen. The call rests on the fitted dose curve; in most records, active means well fitted inhibition curve with a large enough effect; inconclusive means small, poorly fitted or top-dose-only effect, or effect the other way, or another doubt; inactive means no such curve, though single readings can be large or run the other way. Potencies of inconclusive entries are left out as doubtful fits.

Molecular target: Lysosomal alpha-glucosidase (Homo sapiens) (UniProt P10253)
Assay: qHTS Assay for Inhibitors of Human alpha-Glucosidase as a Potential Chaperone Treatment of Pompe Disease;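 on activity change, negative = inhibition: plate controls were uninhibited enzyme wells for no effect and no-enzyme background for full effect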
Conditions: purified human GAA, 4-MU-alpha-glucoside fluorescence; activity change, negative = inhibition: at 76.9 µM (top of the series) unless noted
Summary of the method: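 Endpoint fluorogenic read: 20 min room-temperature reaction of 4 nM human alpha-glucosidase with 400 uM 4-methylumbelliferyl-alpha-D-pyranoside, pH 5.0, quenched with 1M NaOH/1M glycine pH 10. AC50 from Hill modeling.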
Potency means the concentration at half of the fitted maximal effect; tags describe the fitted curve by direction and shape.

Q: `Cc1c(CCO)c(=O)n(-c2ccccc2)n1S(=O)(=O)c1c(Cl)cc(Cl)cc1Cl` was tested. Which “activity change, negative = inhibition” value did it give?
A: inactive: -6.54%

Q: `O=C(CSc1nncs1)N1CCN(S(=O)(=O)c2ccccc2)CC1` was tested. Which Potency did it give?
A: inconclusive [inhibitor, single point]

Q: For `Cc1oc2c(CN3CCCC3)c(O)ccc2c(=O)c1-c1ccccc1`, which Potency is on record?
A: inconclusive [activator, partial curve]

Q: Which Potency does the source give for `Cn1c(C(=O)NCC2CCCO2)cc2c(=O)n3ccccc3nc21` (stereo not drawn) here?
A: inconclusive [activator, partial curve]

Q: Which Potency does the source give for `O=C(Oc1cccc(/C=N/Nc2nc(Nc3ccccc3)nc(N3CCOCC3)n2)c1)c1ccco1` here?
A: inconclusive [inhibitor, partial curve]

Q: `COc1ccc(N(CC(=O)NCc2ccco2)S(=O)(=O)c2ccc(C)cc2)cc1` was tested. Which activity change, negative = inhibition did it give?
A: inconclusive: 0.688% [activator]

Q: With `CN(C)c1ccc(C=Nc2ccc(N(C)C)cc2)cc1` as the compound, how does the “activity change, negative = inhibition” value read?
A: inactive: 0.74%

Q: With `Cc1noc(N)c1C(=O)Nc1ccc(C(C)(C)C)cc1` as the compound, how does the Potency read?
A: inconclusive [inhibitor, single point]

Q: Which “activity change, negative = inhibition” value does the source give for `CCOC(=O)CNc1c(-c2ccc(OC)cc2)nc2ccc(Cl)cn12` here?
A: inactive: 1.52%

Q: How did the Potency turn out when `CC(C)Cn1c(/C=C/c2ccco2)nc2ccccc21` was run?
A: inconclusive [inhibitor, single point]

Q: Which “activity change, negative = inhibition” value does the source give for `Cc1nn(C)c(N)c1[N+](=O)[O-]` here?
A: inactive: -3.73%

Q: `C=CCn1c(=O)c2c(C)c(C)sc2n2c(Nc3ccc(OC)cc3)nnc12` was tested. Which Potency did it give?
A: inconclusive [inhibitor, single point]

Q: `COc1ccc(S(=O)(=O)Nc2ccc3c(c2)OCCO3)cc1Cl` was tested. Which Potency did it give?
A: inconclusive [inhibitor, full curve]

Q: For `O=C(O)c1cn(Cc2ccccc2Cl)c2ccc(S(=O)(=O)N3CCOCC3)cc2c1=O`, which Potency is on record?
A: inconclusive [inhibitor, partial curve]

Q: Which Potency does the source give for `Cc1ccc(-c2nn(-c3ccccc3)cc2/C=C/C(=O)Nc2nccs2)cc1` here?
A: inconclusive [activator, partial curve]

Q: With `O=C(NNC(=O)c1cc2cc3ccccc3nc2s1)c1ccc(F)cc1` as the compound, how does the “activity change, negative = inhibition” value read?
A: inactive: -7.55%

Q: `Cc1cc(C)cc(NC(=O)CN2CCCN(S(=O)(=O)c3ccc(Br)s3)CC2)c1` was tested. Which activity change, negative = inhibition did it give?
A: inconclusive: -16.3% [inhibitor]

Q: With `Cc1cc(=O)oc2cc(NC(=O)CCC(=O)O)ccc12` as the compound, how does the Potency read?
A: inconclusive [activator, single point]

Q: With `COc1cc2cc(C(c3nnnn3C3CCCC3)N3CCCCCC3)c(=O)[nH]c2cc1OC` (stereo not drawn) as the compound, how does the Potency read?
A: inconclusive [inhibitor, single point]

Q: For `CCOC(=O)c1ccc(NC(=S)N2CCCC2c2ccc(OC)c(OC)c2)cc1` (stereo not drawn), which Potency is on record?
A: inconclusive [inhibitor, single point]

Q: How did the activity change, negative = inhibition turn out when `Cc1ccc(S(=O)(=O)CCNC(=O)Cc2ccccc2)cc1` was run?
A: inconclusive: -22.4% [inhibitor]

Q: With `Cc1cc(N2CCN(c3ccccc3F)CC2)nc2cc(O)ccc12` as the compound, how does the Potency read?
A: inconclusive [activator, single point]

Q: `Cc1ccc(SCCC(=O)NCc2ccncc2)cc1` was tested. Which Potency did it give?
A: inconclusive [activator, full curve, poor fit]

Q: `Cc1occc1-c1nnc(SCC(=O)NC(C)(C)C)n1CC(C)C` was tested. Which activity change, negative = inhibition did it give?
A: inconclusive: 19.6% [activator]

Q: Which Potency does the source give for `FCCCOc1ccc(-c2ccnc3ncnn23)cc1` here?
A: inconclusive [activator, single point]

Q: With `C[C@@H](C(=O)OCC(=O)Nc1cc(S(=O)(=O)N2CCOCC2)ccc1Cl)N1C(=O)C2CCCCC2C1=O` (stereo partly drawn) as the compound, how does the Potency read?
A: inconclusive [inhibitor, single point]

Q: Which Potency does the source give for `CC(NC(=O)OC(C)(C)C)C(=O)Oc1ccc2ccc(=O)oc2c1` (stereo not drawn) here?
A: inconclusive [activator, partial curve]

Q: For `CC1C(c2ccccc2)N(C)C(c2ccccc2)C(C)C1(O)C#Cc1ccccc1` (stereo not drawn), which activity change, negative = inhibition is on record?
A: inconclusive: -15.9% [inhibitor]

Q: With `CC(=O)Nc1ccccc1NS(=O)(=O)c1ccccc1[N+](=O)[O-]` as the compound, how does the “activity change, negative = inhibition” value read?
A: inactive: -6.89%

Q: Which Potency does the source give for `CCCN(CCC)C(=O)c1cc(-c2ccc3c(c2)OCO3)nc2ccccc12` here?
A: inconclusive [inhibitor, single point]

Q: `CCC(C(=O)Nc1cnccn1)c1ccccc1` (stereo not drawn) was tested. Which Potency did it give?
A: inconclusive [inhibitor, full curve, poor fit]

Q: How did the activity change, negative = inhibition turn out when `COc1ccc(CCC(=O)Nc2ccc(Br)cn2)cc1` was run?
A: inconclusive: -15.1% [inhibitor]

Q: For `NC(=O)C1CCN(S(=O)(=O)Cc2ccccc2Cl)CC1`, which activity change, negative = inhibition is on record?
A: inconclusive: 11.8% [activator]

Q: Which Potency does the source give for `c1coc(-c2nc3nc4ccccc4nc3n2CC2CCCO2)c1` (stereo not drawn) here?
A: inconclusive [activator, partial curve]

Q: Which Potency does the source give for `CC(NC(=O)CSc1nnc(-c2cccc(S(=O)(=O)N3CCCCC3)c2)o1)C12CC3CC(CC(C3)C1)C2` (stereo not drawn) here?
A: inconclusive [inhibitor, full curve, poor fit]

Q: For `O=C(NCCCNc1ccc(C(F)(F)F)cc1[N+](=O)[O-])c1cc(F)c(F)cc1Cl`, which Potency is on record?
A: inconclusive [inhibitor, single point]

Q: With `Cc1ccccc1NC(=O)c1cn(-c2ccccc2)nc1-c1ccccc1` as the compound, how does the Potency read?
A: inconclusive [inhibitor, single point]

Q: Which Potency does the source give for `COc1ccc(/C=N/NC(=O)c2cc(-c3ccc(C)cc3C)nc3ccccc23)cc1COC(C)=O` here?
A: inconclusive [inhibitor, single point]

Q: With `COC(=O)Cc1c(C)c2c(O)cc(C)cc2oc1=O` as the compound, how does the Potency read?
A: inconclusive [inhibitor, partial curve, poor fit]

Q: How did the Potency turn out when `CN1C=CC2=C(C#N)C(N)C(C#N)(C#N)C(c3ccccc3)C2C1` (stereo not drawn) was run?
A: inconclusive [activator, single point]

Q: Which activity change, negative = inhibition does the source give for `CC(C)NC(=O)CC(c1ccccc1)c1cc(Br)ccc1O` (stereo not drawn) here?
A: inconclusive: -15.8% [inhibitor]

Q: Which Potency does the source give for `C=CCn1c(CC(C)(C)C)nc2ccccc21` here?
A: inconclusive [inhibitor, single point]

Q: How did the Potency turn out when `Cc1cccc(N2CCN(C(c3cccs3)c3nnnn3C(C)(C)C)CC2)c1C` (stereo not drawn) was run?
A: inconclusive [inhibitor, single point]
